Test results published in article PMC4336329 (PLoS ONE, 2015).
About 14,000 (4.5%) of roughly 310,000 compounds showed an effect of 50% or more. Effects have a minus sign here. The list shows a part of the results.

Target: human ether-à-go-go-related gene (hERG) potassium channel (human, UniProt Q12809)
Assay: primary screen, population patch clamp on CHO cells stably expressing hERG
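Also: peak tail current of the secondary pulse compared with the same well before compound.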

human ether-à-go-go-related gene (hERG) potassium channel, sequence (Q12809 whole entry, looked up): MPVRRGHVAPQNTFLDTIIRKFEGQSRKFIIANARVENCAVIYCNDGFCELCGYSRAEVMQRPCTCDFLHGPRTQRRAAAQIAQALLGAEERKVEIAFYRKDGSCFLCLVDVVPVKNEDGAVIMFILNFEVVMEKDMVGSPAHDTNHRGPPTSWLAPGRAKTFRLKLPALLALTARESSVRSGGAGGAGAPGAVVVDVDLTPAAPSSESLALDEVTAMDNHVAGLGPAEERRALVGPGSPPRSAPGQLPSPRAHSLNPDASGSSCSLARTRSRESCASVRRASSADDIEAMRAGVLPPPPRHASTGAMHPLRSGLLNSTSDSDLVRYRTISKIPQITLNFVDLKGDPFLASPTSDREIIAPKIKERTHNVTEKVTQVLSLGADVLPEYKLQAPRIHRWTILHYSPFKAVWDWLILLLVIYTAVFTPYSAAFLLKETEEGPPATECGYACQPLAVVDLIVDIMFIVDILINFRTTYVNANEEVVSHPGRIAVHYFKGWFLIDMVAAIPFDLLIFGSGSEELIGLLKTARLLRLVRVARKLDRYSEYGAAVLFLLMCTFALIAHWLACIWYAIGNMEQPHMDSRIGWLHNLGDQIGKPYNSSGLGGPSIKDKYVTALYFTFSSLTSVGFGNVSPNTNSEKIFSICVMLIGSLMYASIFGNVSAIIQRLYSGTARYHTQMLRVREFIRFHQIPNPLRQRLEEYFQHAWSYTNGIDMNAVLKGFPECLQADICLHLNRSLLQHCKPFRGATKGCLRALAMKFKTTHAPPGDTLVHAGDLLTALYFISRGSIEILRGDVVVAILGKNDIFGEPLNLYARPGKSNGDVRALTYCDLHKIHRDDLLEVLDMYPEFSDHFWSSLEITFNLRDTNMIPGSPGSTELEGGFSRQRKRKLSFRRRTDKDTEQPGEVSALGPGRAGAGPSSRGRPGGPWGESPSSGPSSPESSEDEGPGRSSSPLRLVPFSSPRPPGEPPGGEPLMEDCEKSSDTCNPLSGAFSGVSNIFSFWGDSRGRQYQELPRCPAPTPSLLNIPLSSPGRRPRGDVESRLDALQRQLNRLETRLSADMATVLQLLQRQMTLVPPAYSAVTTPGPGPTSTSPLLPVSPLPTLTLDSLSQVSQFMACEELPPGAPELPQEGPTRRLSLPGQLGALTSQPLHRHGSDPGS

Structure (SMILES) | hERG current change (%, negative = inhibition) at 10uM [%]
CCC(Sc1nc(=O)cc(N)n1CCc1ccccc1)C(=O)Nc1cc(C)on1 (centres unmarked) | -1.23
CCc1c(C)nc(SCCOc2ccc(OC(C)C)cc2)[nH]c1=O | 18.1
CCCCCC[n+]1c(-c2ccc(Cl)cc2Cl)csc1Nc1ccccc1.[Cl-] | 4.18
Cc1cc(N2C(=O)CC(Cc3ccccc3)C2=O)no1 (centres unmarked) | 10.9
CCCc1cc(C(=O)NCCc2ccccc2)no1 | -11.7
Cc1ccc(NC(=O)N2CCCCCC2)cc1 | -10.3
CCOC(=O)C1CCCN(Cc2cc(Br)c(OC)cc2OC)C1 (centres unmarked) | -16.4
CCOC(=O)C1=C(c2ccccc2)NC(=O)NC1c1ccc(N(C)C)cc1 (centres unmarked) | -7.08
O=C(CN1CCOCC1)Nc1ccc2c(c1)OCO2 | 17.3
CC1(C)CC(=O)C2=C(C1)NC1=C(C(=O)c3ccccc31)C2c1cccnc1 (centres unmarked) | 13
CCOC(=O)C1CCCN(C(=O)c2cc3c(C)nc4ccccc4c3o2)C1 (centres unmarked) | -43.1
COc1ccc(-n2c(O)c(/C=N/NS(=O)(=O)c3cc(C)ccc3C)c3ccccc3c2=O)cc1OC | 11.7
COCCNc1ccc(S(=O)(=O)N2CCCC2)cn1 | 13.2
Cc1nn(Cc2c(Cl)cccc2Cl)c(C)c1N | 9.12
Br.NS(=O)(=O)c1ccc(Nc2nc(-c3ccccc3)cs2)cc1 | -26
Cc1c(NC(=O)c2ccc(Cl)c(S(=O)(=O)N3CCCCC3)c2)c(=O)n(-c2ccccc2)n1C | -6.27
O=C(CN1C(=O)NC2(CCCC2)C1=O)OCCOc1ccc(F)cc1 | 6.62
COc1ccc(C(=O)OCCOc2cccc(Cl)c2)cc1S(=O)(=O)N1CCOCC1 | -24.1
O=C(CN1CCCCCC1)Nc1ccccc1Cl | 6.75

Structure (SMILES) | hERG current change (%, negative = inhibition) at 10uM [%]
COCCn1cc(C(=O)NCc2ccco2)c2c3ccccc3n(C)c2c1=O | -20.6
CCOC(=O)c1ccc(S(=O)(=O)Nc2ccc(N3CCOCC3)cc2)cc1 | 3.9
COc1ccc(C(=O)COc2ccc3c(C)cc(=O)oc3c2)cc1 | 11.1
CCCn1c(SCc2cc(=O)oc3ccc4ccccc4c23)n[nH]c1=O | -29.2
Cc1cccn2c(=O)c(C=O)c(Nc3ccccc3)nc12 | -2.21
O=C(c1ccco1)N1CCN(Cc2nc3ccccc3c(=O)n2-c2ccc(F)cc2)CC1 | -18.8
COc1ccc(Nc2nc(NN)nc(C)c2[N+](=O)[O-])cc1 | 18.5
Cc1ccc(NS(=O)(=O)c2ccc3c(c2)C(=O)c2ccccc2C3=O)c(C)c1 | 4.16
Cc1cc(=O)n(CC(=O)Nc2cc(Cl)ccc2C)c(C(C)C)n1 | -1.59
CCOC(=O)c1oc2ccccc2c1NC(=O)CN1CCOCC1 | 6.54
Cc1oc(-c2ccccc2)cc1C(=O)NC(Cc1c[nH]c2ccccc12)C(=O)O (centres unmarked) | -0.0668
CCCSc1nc(SCC(=O)NCc2ccccc2)c2c3c(sc2n1)COC(C)(CC)C3 (centres unmarked) | 11.5
COc1ccc(COCC(O)CN(Cc2ccccc2)C(C)C)cc1OC (centres unmarked) | 0.398
COc1ccc(S(=O)(=O)N2CCC(N3CCN(c4ccccc4OC)CC3)CC2)cc1 | -66.5
Cc1nn(-c2ccccc2)c(C)c1/C=N/n1c(-c2ccc(Cl)cc2)n[nH]c1=S | -7.04
CCn1c(SCC(=O)Nc2nonc2C)nnc1-c1ccoc1C | -1.18
COC(=O)Cc1c(O)ccn(Cc2ccccc2OC)c1=O | 12.5
CS(=O)(=O)N1CCc2cc(C(=O)N3CCN(c4cccc(Cl)c4)CC3)ccc21 | -13.5
CCOc1ccccc1/C=C/C(=O)NCC(=O)N1CCC(N(C)C2CCCCC2C)CC1 (centres unmarked) | -54.7

Structure (SMILES) | hERG current change (%, negative = inhibition) at 10uM [%]
Cn1c(=O)[nH]c(=O)c2c1nc(N1CCNCC1)n2CCOc1ccccc1 | -12.9
CN(C)c1ccc(C=C2C(=O)OC(C)(C)OC2=O)cc1 | 4.28
COC(C/C=C\[C@H](O)[C@H](C)OCc1ccccc1)OC | -9.28
CCS(=O)(=O)Nc1cccc(-c2cn3c(n2)SCC3)c1 | 12
COc1cc2c(cc1OC)C(c1ccccc1C(F)(F)F)CC(=O)N2 (centres unmarked) | -11.1
CCOC(=O)C1=C(COC(=O)CCc2ccccc2)NC(=O)NC1C (centres unmarked) | -28.1
CCOc1ccccc1N1CC(C(=O)Nc2c(C)n(C)n(-c3ccccc3)c2=O)CC1=O (centres unmarked) | 20.7
O=S(=O)(Nc1ccc(S(=O)(=O)Nc2ncccn2)cc1)c1ccc(Cl)cc1 | 4.73
CCOC(=O)CC(NS(=O)(=O)c1ccc2[nH]c(=O)sc2c1)c1ccc(C)cc1.Cl (centres unmarked) | -9.3
Cc1cccn2c(=O)c3cc(C(=O)NCc4ccc(F)cc4)c(=N)n(CC4CCCO4)c3nc12 (centres unmarked) | -74
CCOC(=O)Cc1nnn(CC(=O)OCC)n1 | 6.19
CCOc1ccc(C2CC(c3ccc(OC)c(OC)c3)n3nc(N)nc3N2)cc1 (centres unmarked) | -3.39
CC(C)(C)C(=O)N1N=C(c2cccc(NS(C)(=O)=O)c2)CC1c1cccs1 (centres unmarked) | -24.7
COCCCNc1nc2c(c(=O)n(Cc3ccc(OC)cc3)c(=O)n2C)n1C | 16.3
Cc1c(C)c(C)c(C(=O)c2ccc(NC(=O)c3ccccc3C(=O)O)cc2)c(C)c1C | 15.6
Cc1ccccc1NS(=O)(=O)c1ccc(N2CCCC2=O)cc1 | 1.61
O=C(c1ccc(OC2CCN(CCCc3ccccc3)CC2)cc1)N1CCCC1 | -69.8
O=C(CCSc1ccccc1)NCCN1CCOCC1 | -1.84
